# Laboratory results from PubChem BioAssay AID686978 (National Center for Advancing Translational Sciences (NCATS), 2013).
# Where “and” joins values, the source holds several entries; their conditions need not be identical. Identical values can stand only once. Hit rate of the full screen: of about 420,000 compounds, about 64,000 (15%) were called active. Inconclusive means that the source gave no clear call. Such entries were picked first, then a sample of the others. The call rests on the fitted dose curve; in most records, active means well fitted inhibition curve with a large enough effect; inconclusive means small, poorly fitted or top-dose-only effect; inactive means flat fitted curve, though single readings scatter. Potencies of inconclusive entries are left out as doubtful fits. More than one record can exist for a structure, and the calls need not agree.
# Test: qHTS for Inhibitors of human tyrosyl-DNA phosphodiesterase 1 (TDP1): qHTS in cells in absence of CPT; further: nearly all actives have a fitted effect of over 55% in size
# Details: DT40 Tdp1-/- hTDP1 cells, no CPT, ATP luminescence, 48 h; activity change, negative = growth inhibition: at 46.2 µM (top of the series) unless noted
# Summary of the method: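 Chicken DT40 Tdp1-/- cells stably complemented with human TDP1 were seeded at 400 cells/well with DMSO in place of 20 nM camptothecin. After compound pinning, cells grew at least 48 hr at 37 °C; viability read by CellTiter-Glo luminescence.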
# On the % scale 0 is the no-effect control and ±100 the full control effect; potency means the concentration at half of the fitted maximal effect; tags describe the fitted curve by direction and shape.
Structure (SMILES),Potency,"activity change, negative = growth inhibition"
CC(C)CC1NC(=O)N(CC(=O)N2CCN(S(=O)(=O)c3ccc4ccccc4c3)CC2)C1=O (configuration not stated),"inconclusive [inhibitor, single point]",
Cc1ccn2c(NC(=O)c3cccc(Cl)c3)c(-c3ccccc3)nc2c1,active: 23.1 µM,
Cc1cc(=O)oc2c3c(cc(OCC(=O)NC4CC4)c12)OC(C)(C)CC3,,inactive: -28.5%
CCC(C)Sc1nnc(CSc2nc(C)cc(C)n2)n1C (configuration not stated),"inconclusive [inhibitor, single point]",
O=C(Nc1ccc(-c2nc3ccccc3s2)cc1)c1cc(-n2cnnc2)ccc1Cl,active: 13 µM,
C[N+]1(C)[C@@H]2CC(OC(=O)C(O)(c3cccs3)c3cccs3)C[C@H]1[C@@H]1O[C@@H]12 (some centres not stated),,inactive: -14%
CC1CCCC(NC(=O)/C=C/c2c(F)cccc2Cl)C1C (configuration not stated),"inconclusive [inhibitor, partial curve]",
COc1cccc(N2CC(NC(=O)c3ccc4ccccc4c3)CC2=O)c1 (configuration not stated),"inconclusive [inhibitor, single point]",
COc1cccc(CN(C)CC(=O)Nc2ccccc2N2CCOCC2)c1OC,"inconclusive [inhibitor, single point]",
O=C(Nc1ccc2c(c1)OCCO2)c1ccncc1,"inconclusive [inhibitor, single point]",
Cc1cccc(NC(=O)CN2C(=O)S/C(=C\c3ccccn3)C2=O)c1,"inconclusive [inhibitor, full curve, poor fit]",
CCc1ccc(CNc2ncc(-c3cccc(OC)c3)n2C)cc1,active: 4.11 µM,
COc1cc(C#Cc2c(-c3cncn3C)n(C)c3ccc(-c4ccc(OC)c(OC)c4)cc23)cc(OC)c1,"inconclusive [inhibitor, single point]",
CCC(C)NC(=O)c1ccccc1-c1nc2ccccc2[nH]1 (configuration not stated),,inactive: 1.44%
Cc1ccc(S(=O)(=O)N(C)CC(=O)OCC(=O)c2ccc3c(c2)NC(=O)CO3)cc1,,inactive: 5.17%
S=C(NCCc1ccccc1)Nc1ccc(Nc2ccccc2)cc1,"inconclusive [inhibitor, single point]",
COc1ccc(C2=Nc3ccccc3NC(=O)C2N(C(=O)c2ccnc3ccccc23)c2ccccc2)cc1 (configuration not stated),"inconclusive [inhibitor, single point]",
Cc1ccc(S(=O)(=O)/N=C(/Nc2cccc(O)c2)c2ccccc2)cc1,"inconclusive [inhibitor, partial curve]",
CCCC(=O)N1CCc2cc(OC)c(OC)cc2C1COc1ccccc1OC (configuration not stated),inactive and active: 18.4 µM,
CC1(c2cccc(Br)c2)NC(=O)N(CC(=O)Nc2ccc3c(c2)OCCO3)C1=O (configuration not stated),"inconclusive [inhibitor, single point]",
CC(C)(C)n1nnnc1C(c1cccc(C#N)c1)N1CCN2CCCC2C1 (configuration not stated),,inactive: -5.87%
CCOc1ccc(-c2c(C(=O)N/N=C/c3ccoc3)nnn2-c2nonc2N)cc1,,inactive: 15.1%
CC1=NN(c2ccccc2)C(=O)C1C(=O)c1ccc([N+](=O)[O-])cc1 (configuration not stated),"inconclusive [inhibitor, single point]",
CC(=O)Nc1ccc(CN2CCCN(C)CC2)cc1,,inactive: -17.9%

Structure (SMILES),Potency,"activity change, negative = growth inhibition"
CSc1ccc(CNCCN2CCOCC2)cc1,,inactive: -16.9%
Cc1ccc(NC(=S)NNC(=O)c2cccc([N+](=O)[O-])c2)cc1Cl,,inactive: -25.2%
CC1(C)OC(=CC=Nc2ccc(Cl)cc2)OC1(C)C,"inconclusive [inhibitor, partial curve]",
CNC(=S)N/N=C/C1=CCC2CC1C2(C)C (configuration not stated),"inconclusive [inhibitor, partial curve, poor fit]",
S=c1[nH]nc(-c2ccc(Br)cc2)n1Cc1ccco1,"inconclusive [inhibitor, single point]",
COc1ccc2c(c1OC)C(=O)OC2N1C(=O)CC[C@H]1C(=O)Nc1ccc(F)cc1F (some centres not stated),,inactive: -4.42%
C/C(=N/O)c1cccc(N2Cc3ccccc3C2)c1,"inconclusive [inhibitor, single point]",
O=C(COC(=O)C1(c2ccccc2F)CCCC1)NCc1ccc2c(c1)OCO2,"inconclusive [inhibitor, single point]",
CSc1cccc(NC(N)=S)c1,"inconclusive [inhibitor, partial curve]",
CC1CCN(C(=O)CCCNC(=O)Cn2cnc3sc4c(c3c2=O)CCCC4)CC1,,inactive: -17.3%
COc1cc(OC)c(/C=N/NC(=O)COc2cccc3cccnc23)c(OC)c1,,inactive: -29.7%
CC(C)NC(=S)NN(c1ccccc1)c1ccccc1,"inconclusive [inhibitor, single point]",
CC(C)c1ccc(NC(=O)C2CCC(CNC(=O)[C@@H]3Cc4ccccc4CN3)CC2)cc1 (some centres not stated),"inconclusive [inhibitor, single point]",
Cc1cc(N2CCN(Cc3nc(-c4ccc(F)cc4)oc3C)CC2)cc(C)n1,"inconclusive [inhibitor, single point]",
Cc1ccc(C(C)(C)C)c(SCC(=O)Nc2nnc(C)s2)c1,,inactive: -12.3%
Cc1cc(C)c(S(=O)(=O)N2CCOC23CCN(S(C)(=O)=O)CC3)c(C)c1,"inconclusive [inhibitor, single point]",
CN(Cc1nc2ccccc2c(=O)[nH]1)C(=O)C1CC(=O)N(c2cccc3ccccc23)C1 (configuration not stated),"inconclusive [inhibitor, single point]",
COCC(=O)N1CCC[C@@]2(CCN(c3ccccc3)C2)C1,,inactive: -9.01%
CC(C)OCC(O)CCc1n[nH]c(=S)n1-c1ccccc1 (configuration not stated),,inactive: 5.27%
COc1ccccc1OCC(=O)OC/C(O)=C(\C#N)c1nc2ccccc2[nH]1,"inconclusive [inhibitor, single point]",
CN(C)CCCN(CCCN(C)C)C(=S)Nc1ccc(S(=O)(=O)N2CCOCC2)cc1,,inactive: 1.28%
O=C(/C=C/c1ccc(Cl)cc1Cl)OCC(=O)N1CCCC1,,inactive: -21.1%
Cc1nc(-c2ccc(Cl)cc2)sc1C1(C)CC(c2ccc(Br)cc2)=NO1 (configuration not stated),,inactive: -21.1%
